From PubChem BioAssay (Tox21)
Inconclusive means that the source gave no clear call. Such entries were picked first, then a sample of the others. For some of these results: Potencies beside an inconclusive call are fits to weak or partial responses and may not hold up. Calls of active or inactive are those of the source. Unless noted, the call rests on the fitted dose curve; in most records, active means well fitted curve in the direction sought with a large enough effect in the repeat runs; inconclusive means weak or mixed curves; inactive means no such curve, though single readings can be large; an effect the other way counts as inactive or inconclusive.

How the values were obtained:
[1] = qHTS assay to identify small molecule agonists of H2AX - cell viability counter screen (AID 1224847; calls by dose curve; further: nearly all actives have a fitted effect of over 30% in size)
How it was run: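 CHO-K1 cells plated overnight at 37C, then exposed 3 h at 37C to compounds at 15 concentrations (0.76% DMSO final). Viability by CellTiter-Glo luminescence after 30 min at room temperature.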

[2] = qHTS assay to identify small molecule antagonists of the estrogen related receptor (ERR) signaling pathway from Tox21 library (AID 1224848); further: nearly all actives have a fitted effect of over 50% in size
How it was run: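 Reading was by luminescence 30 min after ONE-Glo addition. Before that, ERR cells at 2,000 per well had rested 6 h at 37 C/5% CO2 and then received pin-tooled compounds in DMSO for 18 h at 37 C.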

[3] = qHTS RealTime-Glo MT Cell Viability Assay in HepG2 cells - 24 hour (AID 1224867); further: nearly all actives have a fitted effect of over 50% in size
How it was run: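 Cell number in HepG2 cultures estimated from NanoLuc luminescence generated by metabolic reduction of a prosubstrate by living cells. The homogeneous, nonlytic format allowed repeated reads at 0, 8, 16, 24, 32 and 40 h of compound exposure.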

[4] = qHTS RealTime-Glo MT Cell Viability Assay in HEK293 cells - 16 hour (AID 1224872); further: nearly all actives have a fitted effect of over 50% in size
How it was run: (§1)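 Homogeneous bioluminescent viability format in HEK293 cells (600 cells/well). Following 5 h at 37 C/5% CO2, 23 nL compound was pintooled; the signal was measured repeatedly during 40 h incubation.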

[5] = qHTS RealTime-Glo MT Cell Viability Assay in HEK293 cells - 40 hour (AID 1224874); details: RealTime-Glo luminescence; max response: active compounds read low; further: nearly all actives have a fitted effect of over 50% in size
How it was run: (§2)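 Cells were seeded together with NanoLuc luciferase and a prosubstrate that viable cells reduce to a luciferase substrate. After a 5 h incubation at 37 C/5% CO2, compounds were added and luminescence was measured repeatedly during 40 h of treatment.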

[6] = A CellTox Green Cytotoxicity Assay to monitor cytotoxicity in HepG2 cells - 40 hour (AID 1224879); further: nearly all actives have a fitted effect of over 40% in size
How it was run: (§3)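 Read-out is fluorescence of a cyanine dye excluded from live cells that stains DNA of dead HepG2 cells, with signal proportional to cytotoxicity. Plates were read at 0, 8, 16, 24, 32 and 40 h after compound addition.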

[7] = qHTS RealTime-Glo MT Cell Viability Assay in HepG2 cells - 40 hour (AID 1224870); further: nearly all actives have a fitted effect of over 50% in size
How it was run: (§4)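 Real-time viability: cells seeded at 600 per well together with NanoLuc and cell-permeant prosubstrate, compounds added after 5 h incubation. Luminescence tracked at 0, 8, 16, 24, 32 and 40 h of exposure.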

[8] = A CellTox Green Cytotoxicity Assay to monitor cytotoxicity in HEK293 cells - 40 hour (AID 1224871); further: nearly all actives have a fitted effect of over 45% in size
How it was run: (§5)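 Nonlytic real-time cytotoxicity: HEK293 + CellTox Green reagent plated, 5 h preincubation, pintool compound addition (23 nL in DMSO), 37 C for 40 h, fluorescence measured at successive time points.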

[9] = qHTS RealTime-Glo MT Cell Viability Assay in HepG2 cells - 8 hour (AID 1224873); further: nearly all actives have a fitted effect of over 55% in size
How it was run: as §4

[10] = A CellTox Green Cytotoxicity Assay to monitor cytotoxicity in HEK293 cells - 24 hour (AID 1224875); further: nearly all actives have a fitted effect of over 45% in size
How it was run: as §5

[11] = A CellTox Green Cytotoxicity Assay to monitor cytotoxicity in HepG2 cells - 24 hour (AID 1224878); further: nearly all actives have a fitted effect of over 45% in size
How it was run: as §3

[12] = qHTS RealTime-Glo MT Cell Viability Assay in HEK293 cells - 0 hour (AID 1224880); further: nearly all actives have a fitted effect of over 45% in size
How it was run: as §2

[13] = qHTS RealTime-Glo MT Cell Viability Assay in HEK293 cells - 32 hour (AID 1224868); further: nearly all actives have a fitted effect of over 50% in size
How it was run: as §1

[14] = A CellTox Green Cytotoxicity Assay to monitor cytotoxicity in HEK293 cells - 0 hour (AID 1224869); further: nearly all actives have a fitted effect of over 50% in size
How it was run: as §5

[15] = A CellTox Green Cytotoxicity Assay to monitor cytotoxicity in HEK293 cells - 32 hour (AID 1224881); further: nearly all actives have a fitted effect of over 40% in size
How it was run: as §5
Potency means the concentration at half of the fitted maximal effect; tags describe the fitted curve by direction and shape.

With C[C@]12CC[C@H]3C(=CCc4cc(O)ccc43)[C@@H]1CCC2=O the Potency [1] was active: 101 µM, the Potency [2] was active: 61.1 µM and the Potency [3] was inconclusive: 49 µM [falling, partial curve, poor fit]. The Potency [4] was inconclusive: 49 µM [cytotoxic, single point], the Potency [5] was active: 43.6 µM and the Potency [6] was inconclusive: 43.6 µM [activator, partial curve].

With OCCN1CCN(CCCN2c3ccccc3Sc3ccc(Cl)cc32)CC1 the Potency [1] was inconclusive: 49.2 µM [cytotoxic, single point], the Potency [7] was active: 23.9 µM and the Potency [8] was active: 26.8 µM. For the same molecule, the Potency [9] was active: 23.9 µM, the Potency [10] was inconclusive: 26.8 µM [activator, single point] and the Potency [11] was active: 15.1 µM. The Potency [12] was inconclusive: 10.7 µM [rising, partial curve, poor fit].

In the case of C1=CC2C3C=CC(C3)C2C1 (stereo not given), the Potency [1] is reported as inconclusive: 1.76 µM [cytotoxic, partial curve, poor fit], the Potency [13] is reported as “inactive” and the Potency [14] is reported as inconclusive: 54 µM [activator, partial curve, poor fit]. The Potency [8] was inconclusive: 0.0959 µM [activator, partial curve, poor fit], the Potency [10] was inconclusive: 0.121 µM [activator, full curve, poor fit] and the Potency [6] was “inactive”. The Potency [15] was inconclusive: 0.152 µM [activator, partial curve, poor fit].

With c1ccc(C(O[C@@H]2CCCN(CCc3ccc4c(c3)OCO4)C2)c2ccccc2)cc1 the Potency [1] was inconclusive: 40.1 µM [cytotoxic, full curve], the Potency [3] was “inactive” and the Potency [13] was inconclusive: 54.9 µM [cytotoxic, single point]. For the same molecule, the Potency [4] was inconclusive: 61.6 µM [cytotoxic, single point] and the Potency [5] was inconclusive: 61.6 µM [cytotoxic, single point].
